Numbering of substitutions follows the chain as printed; changes in the protein carry UniProt numbers. The list shows a part of the results.

T1: RBFOX1 RRM (Homo sapiens, UniProt Q9NWB1 109-208)
T1 sequence: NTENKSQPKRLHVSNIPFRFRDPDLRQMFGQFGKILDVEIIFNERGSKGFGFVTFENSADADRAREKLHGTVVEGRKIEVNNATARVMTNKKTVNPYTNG

B1: CAUGCUG (DNA:RNA)
RNA: GGGAGACCGGAAUUCAGAUUGUCCCAUGCUGUUAAAUCCCGUCGUAGCCACCA
DNA 1: CAATCTGAATTCCGGTCTCCC
DNA 2: TGGTGGCTACGACGGGATT
B2: CGCUCAG (DNA:RNA)
RNA: B1 RNA with A26G, U27C, G28U, U30A
DNA 1: CAATCTGAATTCCGGTCTCCC
DNA 2: TGGTGGCTACGACGGGATT
B3: CUCCGGA (DNA:RNA)
RNA: B1 RNA with A26U, U27C, G28C, C29G, U30G, G31A
DNA 1: CAATCTGAATTCCGGTCTCCC
DNA 2: TGGTGGCTACGACGGGATT
B4: UGGGUCG (DNA:RNA)
RNA: B1 RNA with C25U, A26G, U27G, C29U, U30C
DNA 1: CAATCTGAATTCCGGTCTCCC
DNA 2: TGGTGGCTACGACGGGATT
B5: UAAGCUA (DNA:RNA)
RNA: B1 RNA with C25U, U27A, G31A
DNA 1: CAATCTGAATTCCGGTCTCCC
DNA 2: TGGTGGCTACGACGGGATT
B6: AUCCCUC (DNA:RNA)
RNA: B1 RNA with C25A, A26U, U27C, G28C, G31C
DNA 1: CAATCTGAATTCCGGTCTCCC
DNA 2: TGGTGGCTACGACGGGATT
B7: CGCCCCC (DNA:RNA)
RNA: B1 RNA with A26G, U27C, G28C, U30C, G31C
DNA 1: CAATCTGAATTCCGGTCTCCC
DNA 2: TGGTGGCTACGACGGGATT
B8: GGGCUCG (DNA:RNA)
RNA: B1 RNA with C25G, A26G, U27G, G28C, C29U, U30C
DNA 1: CAATCTGAATTCCGGTCTCCC
DNA 2: TGGTGGCTACGACGGGATT
B9: AAUAUUU (DNA:RNA)
RNA: B1 RNA with C25A, G28A, C29U, G31U
DNA 1: CAATCTGAATTCCGGTCTCCC
DNA 2: TGGTGGCTACGACGGGATT
B10: CGUACUA (DNA:RNA)
RNA: B1 RNA with A26G, G28A, G31A
DNA 1: CAATCTGAATTCCGGTCTCCC
DNA 2: TGGTGGCTACGACGGGATT
B11: GUUACGC (DNA:RNA)
RNA: B1 RNA with C25G, A26U, G28A, U30G, G31C
DNA 1: CAATCTGAATTCCGGTCTCCC
DNA 2: TGGTGGCTACGACGGGATT
B12: GUAGACA (DNA:RNA)
RNA: B1 RNA with C25G, A26U, U27A, C29A, U30C, G31A
DNA 1: CAATCTGAATTCCGGTCTCCC
DNA 2: TGGTGGCTACGACGGGATT
B13: UUGCUUA (DNA:RNA)
RNA: B1 RNA with C25U, A26U, U27G, G28C, C29U, G31A
DNA 1: CAATCTGAATTCCGGTCTCCC
DNA 2: TGGTGGCTACGACGGGATT
B14: UUCGUAC (DNA:RNA)
RNA: B1 RNA with C25U, A26U, U27C, C29U, U30A, G31C
DNA 1: CAATCTGAATTCCGGTCTCCC
DNA 2: TGGTGGCTACGACGGGATT
B15: GACCCAG (DNA:RNA)
RNA: B1 RNA with C25G, U27C, G28C, U30A
DNA 1: CAATCTGAATTCCGGTCTCCC
DNA 2: TGGTGGCTACGACGGGATT
B16: UGGGCCC (DNA:RNA)
RNA: B1 RNA with C25U, A26G, U27G, U30C, G31C
DNA 1: CAATCTGAATTCCGGTCTCCC
DNA 2: TGGTGGCTACGACGGGATT
B17: CCCCUUU (DNA:RNA)
RNA: B1 RNA with A26C, U27C, G28C, C29U, G31U
DNA 1: CAATCTGAATTCCGGTCTCCC
DNA 2: TGGTGGCTACGACGGGATT
B18: GCACGCU (DNA:RNA)
RNA: GGGAGACCGGAAUUCAGAUUGUCCGCACGCUUUAAAUCCCGUCGUAGCCACCA
DNA 1: CAATCTGAATTCCGGTCTCCC
DNA 2: TGGTGGCTACGACGGGATT
B19: GUGUUGA (DNA:RNA)
RNA: B18 RNA with C26U, A27G, C28U, G29U, C30G, U31A
DNA 1: CAATCTGAATTCCGGTCTCCC
DNA 2: TGGTGGCTACGACGGGATT
B20: AUCGAGC (DNA:RNA)
RNA: B1 RNA with C25A, A26U, U27C, C29A, U30G, G31C
DNA 1: CAATCTGAATTCCGGTCTCCC
DNA 2: TGGTGGCTACGACGGGATT

This test deals with T1, RBFOX1 RRM. Description: EMSA; HiTS-Eq, 1 nM pool, 10 min; buffer printed only for the single-RNA assays: 10 mM Tris pH 7.5, 150 mM NaCl, 3.4 mM EDTA, 0.001% NP-40, 30 C. As to conditions: tags: His6 N-terminal (pET28a); label: 5' 32P. In short, it runs like this:
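Purified RbFox RRM (wild type or mutant) was equilibrated for 10 min in 50 µL with 1 nM of a 5′-radiolabelled pool of RNA with 7 randomized nucleotides, its flanks annealed to DNA oligonucleotides, across increasing protein concentrations. Free RNA was separated by 8% native PAGE, excised, reverse-transcribed, PCR-barcoded and sequenced on an Illumina HiSeq 2500. Relative association constants came from read-count changes of each variant against the control reaction, normalised to the cognate motif.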
Take B1: the binding signal was 0.00913 KA relative to UGCAUGU.

On to B2, for which the binding signal was 0.0088 KA relative to UGCAUGU.

With B3, the binding signal is 0.00678 KA relative to UGCAUGU.

B4: the binding signal is 0.0407 KA relative to UGCAUGU.

For the molecule B5, the binding signal was 0.0062 KA relative to UGCAUGU.

In the case of B6, the binding signal was 0.00229 KA relative to UGCAUGU.

As for B7, the binding signal was 0.00952 KA relative to UGCAUGU.

Turning to B8, the binding signal was 0.019 KA relative to UGCAUGU.

For B9, the binding signal was 0.00109 KA relative to UGCAUGU.

In the case of B10, the binding signal is 0.00448 KA relative to UGCAUGU.

On to B11, for which the binding signal was 0.0147 KA relative to UGCAUGU.

With B12, the binding signal was 0.00587 KA relative to UGCAUGU.

As to B13, the binding signal is 0.0125 KA relative to UGCAUGU.

On to B14, for which the binding signal was 0.009 KA relative to UGCAUGU.

Consider B15, for which the binding signal was 0.00593 KA relative to UGCAUGU.

As for B16, the binding signal was 0.0266 KA relative to UGCAUGU.

In the case of B17, the binding signal is 0.000239 KA relative to UGCAUGU.

Turning to B18, the binding signal is 0.0317 KA relative to UGCAUGU.

On to B19, for which the binding signal is 0.0228 KA relative to UGCAUGU.

In the case of B20, the binding signal is 0.00809 KA relative to UGCAUGU.

(Values after PMC9911399, “Two distinct binding modes provide the RNA-binding protein RbFox with extraordinary sequence specificity”.)
